Consider 42 compounds from ChEMBL document CHEMBL4888484, “Replenishing the malaria drug discovery pipeline: Screening and hit evaluation of the MMV Hit Generation Library 1 (HGL1) against asexual blood stage Plasmodium falciparum ,using a nano luciferase reporter read-out” (2022).

About 540 (0.36%) of roughly 150,000 compounds showed an effect of 50% or more. This is one part of the list.

For this test, the system named is Plasmodium falciparum. Put plainly: Primary screen in NF54 nanoGlo assay, in single point, at 2uM, 72h; a lower Z score goes with more inhibition. It counts as functional, Erythrocyte. To be noted: timepoint 72 hour.
Take `O=C([C@@H]1CCCO1)N1CCc2cc(F)cnc21`: the “% Inhibition” value amounted to 9% and the Z score is -1.13.
`CCO[C@H]1CN(C)C[C@@H]1NC(=O)c1ccc(-c2ccc3c(c2)OCC3)cc1`: the “% Inhibition” value is recorded as -8% and the Z score stood at 1.57.
On the same counts, the results for `CC1C(C(F)(F)F)OCCN1C(=O)Nc1ccn(CCN2CCOCC2)n1` (centres undefined) are -10% and 1.68.
The corresponding values for `CCCCN(CC)C(=O)c1cc(NC(=O)c2ccc(F)cc2)cnc1N1CCNCC1` are 3% and -0.42.
On the same counts, the results for `CC(NC(=O)N1Cc2cccnc2N2CCC[C@@H]2C1)c1ccnn1C` (some centres undefined) are -3% and 0.52.
In the case of `CCCNS(=O)(=O)N1CCC(n2cc(Br)cn2)CC1`, the “% Inhibition” value is on record as -5% and the Z score amounted to 0.97.
As for `COc1ccc(-n2cccn2)c(-c2cn(C[C@H]3CNCCO3)nn2)c1`, the “% Inhibition” value worked out at 0% and the Z score is listed as -0.06.
Take `O=C(NCc1ccc2c(c1)OCO2)c1ccncc1`: the “% Inhibition” value is recorded as -10% and the Z score was found to be 1.59.
Turning to `CC(C)CN(CC(C)(C)C)C(=O)C(=O)Nc1cccnc1`, the “% Inhibition” value is recorded as -14% and the Z score is reported as 1.59.
On to `FC(F)(F)C1(C(F)(F)F)CNCCO1`, for which the “% Inhibition” value is reported as -3% and the Z score came to 0.58.
On the same counts, the results for `CN(CC[C@H]1CN(C(=O)c2cccs2)CC[C@H]1CC(=O)O)c1ccccc1` are 17% and -2.
`O=C(O)c1cc(NS(=O)(=O)c2ccc(F)c(F)c2)ccc1N1CCC(N2CCCCC2)CC1`: the “% Inhibition” value was determined as 1% and the Z score was -0.14.
On the same counts, the results for `Cc1cc(CNC(=O)C(C)(C)C)c(C)o1` are 6% and -0.86.
Turning to `C[C@@H](CNC(=O)C(=O)Nc1cccc(C(C)(C)O)c1)N(C)C1CC1`, the “% Inhibition” value was -7% and the Z score turned out to be 1.3.
Consider `COCc1nnc2c3ccc(Cl)cc3nc(N3CCN(C(=O)c4ccccc4OC)CC3)n12`, for which the “% Inhibition” value is -5% and the Z score is recorded as 1.06.
Turning to `Cc1nc2c(s1)[C@@H](NCc1nnc3n1CCCC3)CCC2`, the “% Inhibition” value was found to be 7% and the Z score is on record as -1.08.
In the case of `COc1cnc(NS(=O)(=O)c2ccc(Cl)s2)nc1`, the “% Inhibition” value is listed as -15% and the Z score was 1.47.
On the same counts, the results for `COCCn1nc2n(c1=O)CCC1(CC2)CCN(C(=O)Cc2cccc(OC)c2)CC1` are 2% and -0.24.
The corresponding values for `O=C(Nc1nnc(COc2ccccc2)o1)c1ccc2nsnc2c1` are 10% and -1.42.
On the same counts, the results for `Cc1ccc(CN(C)C(=O)[C@H](N)CC(C)C)o1` are -8% and 1.04.
With `Cc1csc(CNC(=O)N2CC[C@H](C3CCOCC3)C2)c1`, the “% Inhibition” value was -11% and the Z score turned out to be 1.68.
With `Cc1ccc(S(=O)(=O)N2CCc3nc(NC(=O)c4ccc(F)cc4)sc3C2)cc1`, the “% Inhibition” value was found to be 22% and the Z score is -2.07.
As to `Cn1c(C2CCN(C(=O)Nc3ccc(Br)cc3)CC2)cc(=O)n2nccc12`, the “% Inhibition” value is -1% and the Z score turned out to be 0.12.
As to `O=C(c1ccc2ccccc2n1)N1CCCC[C@H]1c1nc(C2CC2)no1`, the “% Inhibition” value is recorded as -16% and the Z score came to 1.69.
With `N#Cc1ccc(CN2C[C@H]3CC[C@@H](C2)N(Cc2cscn2)C3=O)cc1`, the “% Inhibition” value was -15% and the Z score amounted to 2.08.
The corresponding values for `CC(NC(=O)CN1c2ccccc2CCC1C)c1ccco1` (centres undefined) are 0% and 0.01.
On the same counts, the results for `COc1cc(C)ccc1Oc1nc(C)nc(N2CCC[C@H](C)C2)c1N` are 2% and -0.37.
Take `O=C(c1ccc(C#CCC2CCCC2)nc1)N1CCCCC1`: the “% Inhibition” value is listed as -7% and the Z score came out at 1.34.
The corresponding values for `CC(C)c1noc(CCc2nc(-c3ccccc3)no2)n1` are -2% and 0.27.
On the same counts, the results for `O=C(c1cn2c(n1)CCCC2)N1CCc2ccc(Cl)cc2C1` are -14% and 1.94.
The corresponding values for `CCCc1cc(C(=O)N[C@@H](CC)c2nc(C)no2)[nH]n1` are -12% and 1.85.
Take `Cn1c(C2CCN(S(C)(=O)=O)CC2)nn(CC(=O)Nc2ccccc2)c1=O`: the “% Inhibition” value is -9% and the Z score stood at 1.36.
For `CC[C@@H](CNC(=O)c1ccc(-n2c(=O)n(C)c(=O)n2C)cc1)c1ccccc1`, the “% Inhibition” value is -16% and the Z score came out at 2.16.
On the same counts, the results for `O=S(=O)(Cc1ccccc1)NCCC1CCCCCC1` are -6% and 0.91.
With `CC(=O)N1CCCC[C@H]1C1=CCCN(Cc2cc(F)ccc2C)C1`, the “% Inhibition” value was -11% and the Z score is 1.77.
`CCc1c(C)noc1NC(=O)Cc1cc(C)no1`: the “% Inhibition” value is recorded as -3% and the Z score is recorded as 0.59.
The corresponding values for `O=C(c1coc(COc2cccc(F)c2)n1)N1C[C@H]2CC[C@H]1C2` are 2% and -0.35.
In the case of `Cc1nc(CN[C@@H](C)c2nc(C3CCCCC3)no2)oc1C`, the “% Inhibition” value is -7% and the Z score was determined as 0.94.
The corresponding values for `Cc1nc2c(N3CCN(Cc4ccoc4)[C@@H](CCO)C3)ncnc2o1` are -20% and 1.93.
The corresponding values for `CCNC(=O)c1ccc(Nc2c(Oc3cccc(C)c3)cnn(-c3ccc(F)cc3)c2=O)cc1` are -14% and 1.4.
The corresponding values for `CN(Cc1ccccc1)C(=O)CN1C(=O)COc2ccc(S(=O)(=O)N3CCOCC3)cc21` are -2% and 0.41.
On to `Cc1nc(C)c(-c2nccn2Cc2ccc(S(N)(=O)=O)cc2)s1`, for which the “% Inhibition” value amounted to 5% and the Z score was -0.7.
